# Measured values from the supplement of paper PMC12217912.
# Some of the results follow. The full chains were built here from the parent and the listed change. Values near 0.05 are background.
# B1: TEV protease; numbered along this chain (parent)
# chain: MGESLFKGPRDYNPISSSICHLTNESDGHTTSLYGIGFGPFIITNKHLFRRNNGTLVVQSLHGVFKVKDTTTLQQHLVDGRDMIIIRMPKDFPPFPQKLKFREPQREERICLVTTNFQTKSMSSMVSDTSCTFPSGDGIFWKHWIQTKDGQCGSPLVSTRDGFIVGIHSASNFTNTNNYFTSVPKNFMELLTNQEAQQWVSGWRLNADSVLWGGHKVFMVKPEEPFQPVKEATQL
# Variants of: B1
# Experiment: raw area under fraction-flipped curve 0-4 h after induction (AUC4h, not background-subtracted), DNA-recorder readout of cleavage of the substrate (dimensionless); higher = more cleavage of the substrate by the protease variant
# Details: temperature: 34 °C; time window: 0-4 h after rhamnose induction
# Experimental: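 In vivo DNA recorder in E. coli TOP10(DE3) ΔrhaA at 34 °C. Each TEVp single-site mutant (parent TEVp 0) is paired with a single-site variant of the 7-mer TEVs (canonical ENLYFQ|S). The substrate sits between flexible linkers in a Bxb1-sfGFP-TEVs-SsrA fusion, so cleavage stabilises Bxb1 and speeds flipping of a recombination array, read by NGS. The value is the raw area under the fraction-flipped curve over 0-4 h after rhamnose induction (AUC4h), with ≥20 reads per time point. It is not background-subtracted; inactive controls average about 0.047.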
# 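Note: Bxb1 expression induced with 0.2% (w/v) L-rhamnose at OD600 near 0.5, cultures sampled hourly, flipped fraction per protease–substrate barcode pair counted by paired-end Illumina sequencing.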
Variant,area with substrate ENLYFQA,area with substrate ENLYFQC,area with substrate ENLYFQD,area with substrate ENLYFQG,area with substrate ENLYFQI,area with substrate ENLYFQK,area with substrate ENLYFQL,area with substrate ENLYFQM,area with substrate ENLYFQN,area with substrate ENLYFQP,area with substrate ENLYFQS,area with substrate ENLYFQT,area with substrate ENLYFQV,area with substrate ENLYFQW,area with substrate ENLYFQY,area with substrate ENLYFQR,area with substrate ENLYFQH,area with substrate ENLYFQF,area with substrate ENLYFQE,area with substrate ENLYFQQ
E3L,0.0692,0.0554,0.0851,0.0744,0.0592,0.0718,0.0596,0.0582,0.0569,0.0611,0.0635,0.0779,0.0138,0.0593,0.0574,,,,,
E3T,0.157,0.129,,,0.0492,,0.0557,,0.0795,,0.137,0.0627,,0.0682,,0.0649,,,,
H47Q,0.0483,0.0581,0.0544,0.073,0.0524,0.0666,0.0617,0.06,0.0581,,0.0617,0.0569,,,,0.058,0.0587,,,
N53F,0.0783,0.0954,,0.0838,0.0541,0.0622,0.0658,0.143,0.0685,,0.0818,0.0684,,0.0556,0.0821,0.0583,0.0697,0.0634,,
N53Y,0.0745,0.102,,0.0739,,0.0561,0.0592,,0.0624,0.0555,0.0758,0.0626,,0.0653,0.0568,0.066,0.0708,0.0538,,
N53W,0.0819,0.0686,0.0639,0.0721,0.0552,,0.0506,,0.0761,0.0652,0.0852,0.082,,0.0705,,0.0589,0.0697,0.0529,,
Y34V,0.0805,0.112,,0.0715,0.0562,0.0608,0.0602,0.081,0.0721,0.0683,0.0847,0.0683,0.06,0.0662,,0.0685,,0.0717,,
Y34A,0.0808,0.0832,0.0457,0.0827,,0.0589,,0.07,,,0.0897,,0.0538,0.0664,,,,,,
K68W,0.131,,0.0951,,0.0379,0.0617,0.0679,0.0778,0.0708,,0.108,,,0.0712,0.0507,,0.0878,,0.108,0.0722
K68D,0.0992,0.112,,0.154,0.0567,0.0673,0.095,0.116,0.0823,0.0307,0.117,0.0532,0.0361,0.0798,,0.0601,,0.114,,
P40V,0.102,0.108,0.0791,,,0.0598,0.062,,0.0879,,0.105,0.0648,0.0505,,0.0745,,,,,0.0646
L61R,0.12,0.123,0.0399,0.127,0.0745,,0.0792,0.105,0.083,,0.109,0.0739,,0.0641,,0.0506,0.068,0.0824,0.0599,0.077
D69K,0.0828,,,0.097,,0.0655,0.0587,0.0938,,0.0608,0.0914,,0.0537,0.045,,0.0462,0.0847,,0.0766,
P9I,0.11,,,0.148,,,,0.0895,,,0.109,0.0664,0.0538,,0.0919,,0.0843,,,
K7G,0.0902,,,,0.054,,0.0506,0.0918,,,0.0928,0.0723,,,0.0893,0.0783,,,,0.089
K7L,0.11,0.0578,0.0607,,0.0564,0.0687,0.0611,,,0.0658,0.0759,,,0.0543,0.0585,0.0588,,0.0819,0.0608,
F49W,0.0951,0.106,0.088,0.0866,0.0596,0.0697,0.0642,0.0877,0.0876,0.066,0.0961,0.0776,,0.0529,0.0728,0.122,0.0712,,,
L22Q,0.0481,0.0538,,,0.0499,0.0367,0.0478,0.0429,0.0424,,0.0488,0.065,0.0546,0.0449,0.0317,0.0518,0.0572,0.0398,,0.0403
F41H,0.0835,0.0999,,0.0737,0.0357,0.0913,0.0547,,0.0695,0.0617,0.0928,0.0569,,0.0747,,0.066,0.107,0.0655,0.0337,0.0904
I43Y,0.0454,0.0675,0.0547,,,0.0522,0.0518,0.052,,,0.0539,0.0393,0.0427,0.0536,0.0487,0.0543,,0.0409,0.0399,
L5V,0.124,,0.0855,0.0962,,0.0493,0.0356,,0.0637,,0.12,0.0694,0.0535,,0.0998,0.0544,,0.0831,,0.0778
L5C,0.123,,0.0733,,,,,0.0756,0.0918,,0.102,0.0697,,0.0645,0.0798,0.0681,,,,
L73C,0.0829,0.0846,0.0526,,0.0583,,0.0645,,0.0693,,0.075,0.0583,,0.0541,0.0594,0.0482,0.0491,,,
D11C,0.121,0.155,,0.0898,,0.0607,0.0596,0.0889,0.0688,,0.102,0.0959,0.0542,0.0664,0.0923,0.0584,,0.0754,0.0596,
T70N,0.0683,,,,0.0611,0.057,0.0561,0.0716,,,0.0755,0.0697,0.0537,,,0.0552,,0.0754,,0.065
R10T,0.0859,,,0.111,0.0655,0.0686,0.0659,0.0754,0.0757,,0.103,0.0597,0.0651,0.0976,,0.0644,,,,
R10F,0.0932,0.113,0.0658,,0.052,0.0595,0.0498,0.0846,0.0804,0.0576,0.0954,0.053,0.0599,0.0628,,0.0577,0.0651,,,
